Experimental data as given in the supplement of paper PMC3334620.
Over roughly 33,000 sequences, “E-score (-0.5 to 0.5)” has its median near -0.013; the highest 2% begin near 0.3. The list shows a part of the results.

Target: T1, Msn1 (UniProt P22148)
T1 sequence: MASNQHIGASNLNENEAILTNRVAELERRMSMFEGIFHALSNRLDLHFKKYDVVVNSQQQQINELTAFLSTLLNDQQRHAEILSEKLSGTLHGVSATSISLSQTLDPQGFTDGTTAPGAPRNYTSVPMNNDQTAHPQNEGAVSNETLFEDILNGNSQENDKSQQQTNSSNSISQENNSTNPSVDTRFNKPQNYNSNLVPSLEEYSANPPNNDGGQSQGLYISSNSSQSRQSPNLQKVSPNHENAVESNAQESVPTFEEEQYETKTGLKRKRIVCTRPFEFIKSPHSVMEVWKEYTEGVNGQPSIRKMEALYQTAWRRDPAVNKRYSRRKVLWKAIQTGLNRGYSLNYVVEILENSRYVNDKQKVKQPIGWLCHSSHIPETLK
Assay: PBM E-score (8-mer binding enrichment) (E-score (-0.5 to 0.5)); higher = stronger / more preferred TF binding; most listed sequences are background and not binding sites
Conditions: protein concentration: 200 nM; construct: GST-full length
Outline: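 Full-length yeast transcription factors or their DNA-binding domains, GST-tagged and expressed with PURExpress, were applied at about 100-200 nM to universal all-10-mer Agilent arrays. These arrays had been made double-stranded by primer extension on fresh or once-stripped slides. Detection used fluorescent anti-GST, normalisation used masliner, and E-scores for ungapped eight-base words pooled with reverse complements came from the Universal PBM Analysis Suite.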

Sequence | PBM E-score
ACCCGTTG | -0.021
CAAGCGCC | -0.207
CACAGGAC | 0.202
AGGGTTGC | -0.13
AGTAGTTC | 0.0583
GTCGGGCA | -0.193
ACCTAGAG | -0.162
ACTTTAGG | 0.0205
AAATCGAT | 0.154
CCAGCCAC | 0.00974
ATTATTGA | -0.00666
CCCCGTAA | -0.048
GAGCCTAC | -0.174
ATGAAACG | -0.0216
AAGAGAGG | -0.0384
GAAAAGTC | 0.326
AGAATGCT | -0.0514
AAATGTTG | -0.0982
TACATGGA | 0.193
GTCCGGGA | 0.336
ATAATTCC | 0.0966
ATCTCACA | -0.218
CCAATATC | 0.0212
ACCTACCC | -0.19
TAACATTA | 0.0139

Sequence | PBM E-score
AGCAAAGC | -0.143
CCTCACGA | -0.264
TGCGAAAA | 0.0788
AGTGGCAG | -0.164
ATTATATG | 0.249
GGTTCTCA | 0.0386
CACTTCGG | 0.124
CTCAATGA | -0.0628
CCCCGTAG | -0.254
CGTGCGAC | -0.185
TAGGACCA | 0.202
CATCCAAA | -0.0473
ACCCGGTC | -0.023
ACTTATTC | 0.126
AAGCTTCG | -0.068
CCGGCTTC | -0.146
AAGTTGAT | 0.016
GAGGGTGC | -0.243
CATAATCA | 0.149
CCTCTCTC | -0.319
AGTGTCTG | 0.154
ACTGATGC | -0.154
CGCATGAC | 0.0618
TCGTGCAA | 0.157
CTGGCCCA | -0.274

Sequence | PBM E-score
AGGTGTCG | -0.011
AGCCGCTA | -0.0778
CATCAGGA | 0.258
AATCAAGC | -0.0365
AGACACCC | -0.165
CAACTTAC | -0.0449
AATTAATA | 0.352
CGCTCCAG | -0.16
GAGTGCGC | 0.0269
ATCACGTG | 0.094
ATAATATA | 0.156
TCAGAGCA | -0.227
GCACGGCA | 0.00341
AAATTCCA | 0.192
GGGAGGTA | -0.164
ATATGATA | 0.253
ACGCTGTG | 0.111
ACAACAAC | 0.0976
ACTCAAAT | 0.1
GACTTAAC | -0.0619
ACGGTTGC | -0.213
GTTATCGA | 0.0669
ACTTAAAA | 0.152
ATGCGCGC | 0.114
CGGCTATC | -0.086

Sequence | PBM E-score
CTGGCCAA | -0.0295
AAGGGGCC | -0.191
CACATTCC | 0.0503
CCCATAGG | -0.0495
GTATCAAA | 0.16
CCTTGGCA | -0.155
CCCTGCAA | -0.246
CTTAACAC | -0.0629
AAGCCCTA | -0.0743
ACGGGAGT | -0.0246
CACCTCGC | -0.168
AGTTATTG | 0.0423
CAAGCGTA | -0.0459
GGTGGTCA | -0.237
ACTCCACC | -0.0279
ATCTTTTC | 0.117
TGTGGAAA | 0.18
AACTATTC | 0.00545
AGGCAGAG | -0.114
CCCGCTGA | -0.179
ATTCCCGC | 0.163
AGGAGCCG | -0.304
CCCTATTC | -0.101
AGAGAACA | 0.00043
ACATAGCC | 0.108

Sequence | PBM E-score
TGGCCCCA | -0.338
AGAGAACC | -0.28
ACTTGGGC | -0.109
CCTAAGAG | -0.0591
GAATTCCA | 0.162
AAATCTTC | -0.0522
CTAGATAG | -0.0926
ATACGGAA | 0.255
ACCTGCCT | -0.191
AGTCACGC | -0.197
CCGATCGA | -0.0183
GATAGAAA | -0.0663
TCCCAGGA | -0.205
GGCCCATA | -0.217
GGACGCTA | -0.234
AAGCTTGC | -0.0773
CCGTAGAA | 0.0725
ACCGCGAC | 0.301
TTAAGAAA | 0.0709
AAAAATAA | 0.191
CCCGGTCC | -0.207
CACGTGGG | -0.0886
AGAAAATA | 0.147
GCTCAAGC | -0.105
ATTCCCGG | 0.175

Sequence | PBM E-score
AGGTAGAG | -0.108
CGGCAGTA | -0.103
ACAGCGAC | -0.0767
AATATTGC | 0.218
CCTGAATA | 0.142
CACACAGC | -0.0821
CCTTGTCA | 0.0263
AGCGCTCA | -0.229
AAATGTGA | 0.0721
AATGACGA | 0.101
AGATACTG | 0.0276
ACTCTCAC | -0.053
CATAATAA | 0.14
AATTGCGT | -0.035
ACCGTATA | -0.183
CAGAGGCA | -0.0621
AGACGGAT | 0.115
AAGCCGCT | -0.036
ATAGAAAA | 0.0535
GAACGCGA | -0.104
CGAATTCG | -0.104
ATATGTAC | 0.371
CGCGCACC | -0.107
AGAGCAGA | -0.202
CGTCCAGA | 0.0189

Sequence | PBM E-score
GCATATCC | -0.0414
ATCGGATC | 0.148
AGGCGTTA | -0.0699
CAATCCAA | -0.059
ACGTGTAC | 0.202
CTCGCCGA | 0.0708
AGTATAAT | 0.213
TACTACCA | -0.283
CAAAGATA | 0.075
CCGTGCAG | -0.0768
GACTACTC | -0.076
CCGGACAC | 0.288
ATCTTGCA | 0.0688
GAAGCACC | -0.175
AAAGTGTG | -0.0758
AAAACTCC | -0.186
CCAACACC | -0.277
GTCGTAAA | 0.124
AGAACAAT | 0.0106
CGTATAGC | -0.0492
ACCAAAGA | 0.205
TAGCAATA | 0.111
ATTGGGAG | -0.132
CACTACTC | -0.0939
ATGCACTG | -0.0723

Sequence | PBM E-score
AATATTTA | 0.202
TCCACACA | 0.0549
AGATCGAC | 0.0865
AAATTCGA | 0.0548
GGCATTGA | -0.131
GCCAAGGC | -0.272
CAGTGTCG | 0.0205
CTAAAAAG | 0.157
CCAAATGA | 0.05
CGAACGCC | -0.176
AGCGGAAT | 0.0579
GATCATTA | -0.0863
AGCTGGGC | -0.242
GCAGTCAA | -0.212
AGTTACAG | -0.0292
ACACGGTC | 0.106
CACGATAG | 0.0475
CCTTGGTA | 0.0834
CACGTCGA | -0.00787
AGGTAGGC | -0.145
AGCACTAA | 0.00466
CATTGAGG | -0.0435
CGGGATTC | 0.239
CTTTGGTC | 0.0752
AACGCTAA | -0.0499

Sequence | PBM E-score
AGTTCTCC | -0.205
ATCCATGG | -0.271
CTAAATCC | -0.0272
GCTTGTAA | 0.0964
GAGATCAA | 0.0466
CTCACAAG | -0.182
CGTATATA | 0.0622
CCTATAGA | -0.00031
CCCCGAAG | -0.00133
AAGCTGAT | -0.024
GAAGGGAC | 0.0623
ATGTTTCA | 0.0348
CCGGGACC | -0.159
AAGACCAT | -0.0406
GGATCAAA | 0.0767
GACAGGTA | 0.138
AGGGAGAG | -0.304
GGATCGCC | -0.185
AAAGACGA | 0.00839
